Test results reported in the supplement of paper PMC3334620.
In all, about 33,000 sequences were measured (“E-score (-0.5 to 0.5)”: median about -0.056, highest 2% from about 0.38 on). This is one part of the list.

What follows are sequences tested against Stb4 (UniProt P50104) (assay: PBM E-score (8-mer binding enrichment) (E-score (-0.5 to 0.5)); higher = stronger / more preferred TF binding; most listed sequences are background and not binding sites). Conditions: protein concentration: 200 nM; construct: GST-DNA-binding domain.
Outline: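 Universal all-10-mer Agilent arrays, double-stranded by primer extension on fresh or once-stripped slides, were probed with about 100-200 nM GST-tagged yeast transcription factors made by PURExpress. Fluorescent anti-GST detected bound protein, and masliner normalised the scans. E-scores from the Universal PBM Analysis Suite were given to each ungapped eight-base word pooled with its reverse complement.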

| Sequence | PBM E-score |
| --- | --- |
| AACGCTCA | -0.229 |
| CTATTATC | 0.126 |
| CAAACACC | -0.056 |
| ATTCCGGC | 0.354 |
| CAATCTGC | -0.0793 |
| GATGAGTA | -0.169 |
| CAGCGTCC | 0.0131 |
| CAAAATCC | 0.171 |
| ATAACCAA | -0.0585 |
| AAGTCACG | 0.00315 |
| ATAATCCC | 0.166 |
| AGCCACAA | -0.00236 |
| CCGATGGA | 0.27 |
| GAAGACAC | 0.0641 |
| CGTTTAAA | -0.12 |
| AATGCACG | 0.139 |
| AGTTTAGC | -0.0929 |
| CAGTTTAC | -0.127 |
| GACCTCGC | -0.169 |
| GAACTCGA | -0.115 |
| AGAAAAGA | -0.0685 |
| CACCAATG | -0.15 |
| AGAGTCGG | 0.183 |
| TCTACGCA | -0.159 |
| GCAACCGA | 0.259 |

| Sequence | PBM E-score |
| --- | --- |
| GGATGTGA | 0.254 |
| TCTAAGCA | -0.185 |
| AATAGTGG | -0.0784 |
| AAAAATCT | 0.11 |
| GGAATTCC | 0.232 |
| AACGAGGA | -0.00896 |
| GAACCCGC | 0.145 |
| CGGTCGGC | 0.318 |
| AGAGTTAA | -0.2 |
| AACCCGTG | -0.107 |
| AACTTGCC | 0.139 |
| CGAAGTTC | 0.157 |
| AGAATTAG | -0.092 |
| GTTTGTCA | -0.0445 |
| ATGCCTAC | -0.156 |
| TGAAGCAA | -0.248 |
| CCTGACTA | -0.221 |
| ATAATCTC | -0.0134 |
| GGTCTTTA | 0.057 |
| ATGCGAAC | 0.0435 |
| ATCGTTAG | -0.133 |
| AATCGAGA | -0.161 |
| CATTTACG | -0.0904 |
| CCGCGCTC | 0.128 |
| AACCTGCT | -0.0315 |

| Sequence | PBM E-score |
| --- | --- |
| AATAGCAA | -0.105 |
| CGTAGTAG | -0.0531 |
| ATACGGAG | 0.072 |
| ATTTCGAG | -0.0811 |
| GCTTCTTA | -0.00913 |
| GAATCGCA | -0.141 |
| CGTAGCGC | -0.0733 |
| ATGCGTTA | 0.0365 |
| ATTGGTAG | -0.177 |
| ATCCCGAC | 0.387 |
| AAAAGCAA | -0.0503 |
| GGTAAGTA | 0.148 |
| GCCGTAGA | 0.193 |
| ACCGATAC | 0.177 |
| ACAAGACA | -0.104 |
| AGGGGCAG | -0.0943 |
| AGGTCCCA | -0.224 |
| CCAGGTGC | 0.0398 |
| AGTAGGTC | -0.137 |
| AGTAGGAA | -0.251 |
| CGGGGGAA | 0.224 |
| ACCTAGAC | 0.00327 |
| CAGGTCCG | 0.131 |
| CCGGTCCA | 0.0504 |
| AGCTTAGG | -0.0751 |

| Sequence | PBM E-score |
| --- | --- |
| CTAGTTCC | 0.215 |
| CTCCAAAC | -0.0386 |
| CACGTTTA | -0.132 |
| CTCACCTA | -0.169 |
| TACTCCTA | -0.336 |
| GTGAACCA | -0.124 |
| GGTGTGCA | -0.205 |
| ACCTCGAT | -0.0822 |
| AAGACAGG | -0.165 |
| CTTTATGA | -0.343 |
| GAGAGTCC | -0.139 |
| AAAAGCGG | 0.0741 |
| CCGCGAAG | 0.175 |
| AATTGTAG | 0.00679 |
| CGACGCCA | -0.0172 |
| AGTGTCCA | -0.175 |
| GACAGTTA | -0.0347 |
| AGATCACG | -0.119 |
| AGAACTGC | -0.241 |
| TCCGCGAA | 0.255 |
| TCACTAAA | -0.239 |
| AGCACAGG | -0.138 |
| CGACTAAA | -0.0989 |
| ATCACGAA | -0.225 |
| AAATAAAG | -0.128 |

| Sequence | PBM E-score |
| --- | --- |
| GGCTACGA | 0.0376 |
| ACGCAGTC | -0.357 |
| AGGACCCA | -0.162 |
| AATTGGAC | 0.0728 |
| CCATGCGC | -0.0476 |
| AATGTACA | -0.011 |
| CCTAGTAA | -0.107 |
| CATCATCC | 0.101 |
| GGTGCACC | 0.0558 |
| CAGAATCA | -0.184 |
| AACTATAG | -0.0647 |
| CTCGACCA | -0.276 |
| AAACGGAT | 0.338 |
| GCACTTAA | 0.0926 |
| GCCGAATA | 0.427 |
| ACCTGACT | 0.00577 |
| CCGTCTAC | 0.101 |
| CTTTCAAA | 0.0627 |
| ATTGCTCG | 0.189 |
| CCGAGGCA | 0.396 |
| CACGCCTC | -0.194 |
| ATTGGTGG | -0.101 |
| ACGTACAT | 0.00122 |
| GTCATAGA | -0.0716 |
| CCGTGAAG | 0.0142 |

| Sequence | PBM E-score |
| --- | --- |
| GTTCTTAA | 0.0144 |
| CTTTCTGC | 0.0267 |
| CTTAATCC | 0.256 |
| CATCGGTA | 0.345 |
| GGGGTGAA | -0.124 |
| GCAGTCCC | -0.024 |
| CGGACAGC | 0.146 |
| CCGAGAGA | 0.373 |
| AACTCATA | 0.148 |
| AGTTATAT | -0.0217 |
| ACGCGCGA | -0.0833 |
| GTACGAAA | -0.152 |
| GAACTATA | 0.0846 |
| ACTCTAGG | -0.212 |
| ACTCACCT | -0.281 |
| AAAGAGCA | -0.0662 |
| GTTACCAA | -0.0844 |
| ACAGAGTC | -0.0818 |
| GAGTTTCC | 0.204 |
| GTTGCTCA | -0.212 |
| CGGGACAG | 0.274 |
| AGCGCCAA | -0.178 |
| AAAAACCT | 0.0896 |
| CTGCCCGA | 0.227 |
| AGTATTAG | -0.00647 |

| Sequence | PBM E-score |
| --- | --- |
| AAATCGGC | 0.313 |
| AGCAACCA | -0.153 |
| CGGTGACC | -0.0113 |
| AGGGCCTG | -0.275 |
| GAACATTA | 0.0192 |
| ATTGCCTG | -0.206 |
| AACTGATG | -0.171 |
| CACGGATG | 0.338 |
| CCATCACA | -0.197 |
| AAGCGCCC | 0.101 |
| AAAGGGTA | -0.033 |
| CGAGTCTA | -0.0263 |
| TCAAATCA | -0.36 |
| CAAGGGGA | -0.248 |
| AAAGGAAA | 0.0679 |
| ATGTAACA | -0.0218 |
| CTCGGCGA | 0.397 |
| GTGTTTCA | 0.00798 |
| GCTATAAC | 0.019 |
| AGGAAGGC | -0.178 |
| GCCTGAAC | -0.201 |
| CCCTACGC | -0.0928 |
